Experimental data reported in PubChem BioAssay AID1745853 (National Center for Advancing Translational Sciences (NCATS), 2022).
The other results are listed elsewhere or left out. These are further read-outs of the screen, such as a control signal, another cell line or another target. No call is given for them.

Columns and labels:
Assay in all cases: Primary Screen for Target Class Profiling of Small Molecule Inhibitors of Methyltransferases
[1] = molecular target: Glycine N-methyltransferase (Homo sapiens) (UniProt Q14749); details: purified enzyme, MTase-Glo SAH luminescence; measured here: GNMT inhibition; at 40 µM; stronger effect = lower value
Procedure, shortened: (§1)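 Each enzyme was reacted with SAM and its substrate, with compounds tested once at 40 uM; SAH formed was read by MTase-Glo luminescence.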

[2] = molecular target: Guanidinoacetate N-methyltransferase (Homo sapiens) (UniProt Q14353); details: purified enzyme, MTase-Glo SAH luminescence; measured here: GAMT inhibition; at 40 µM; stronger effect = lower value
Procedure, shortened: as §1

[3] = molecular target: Histamine N-methyltransferase (Homo sapiens) (UniProt P50135); details: purified enzyme, MTase-Glo SAH luminescence; measured here: HNMT inhibition; at 40 µM; stronger effect = lower value
Procedure, shortened: as §1

[4] = molecular target: Nicotinamide N-methyltransferase (Homo sapiens) (UniProt P40261); details: purified enzyme, MTase-Glo SAH luminescence; measured here: NNMT inhibition; at 40 µM; stronger effect = lower value
Procedure, shortened: as §1

[5] = molecular target: Phenylethanolamine N-methyltransferase (Homo sapiens) (UniProt P11086); details: purified enzyme, MTase-Glo SAH luminescence; measured here: PNMT inhibition; at 40 µM; stronger effect = lower value
Procedure, shortened: as §1
% is set by controls: 0 for no effect and ±100 for the full control effect.

| SMILES | activity change, negative = inhibition [1] | activity change, negative = inhibition [2] | activity change, negative = inhibition [3] | activity change, negative = inhibition [4] | activity change, negative = inhibition [5] |
| --- | --- | --- | --- | --- | --- |
| Cc1ccc(N2C(=O)c3cc4sccc4n3CC2(C)C(=O)NC2CCCCCCC2)cc1C (stereo not given) | -1.61% | 0% | 6.72% | -3.24% | -0.205% |
| C=CCc1ccccc1OCC(O)CNC(C)C (stereo not given) | -11.1% | -0.832% | -3.74% | -12% | -0.137% |
| COC(=O)c1ncn2c1C(=O)N(Cc1ccccc1Cl)C(C)(C(=O)NC1CCCCC1)C2 (stereo not given) | 4.96% | 4.7% | 4.68% | 7.05% | 3.5% |
| Cc1ccc(Cn2c(=O)c3ccccc3n3c(=O)n(Cc4cccc(Cl)c4)nc23)cc1 | -1.59% | 4.18% | 1.48% | -2.97% | -1.29% |
| O=C(CCc1nnc2n(Cc3ccc(F)cc3)c(=O)c3ccccc3n12)N1CCN(c2ccccc2F)CC1 | -1.43% | 3.74% | 6.19% | -13.9% | -2.95% |
| CCCN1C(=O)c2cc3ccccc3n2CC1(C)C(=O)NCCC(C)C (stereo not given) | 5.39% | 0% | 4.93% | 10.4% | 4.84% |
| O=C(N[C@H]1C[C@@H]2OCC[C@H]12)c1cccc(-n2cnnc2)n1 | -3.37% | -4.77% | -2.3% | -9.2% | -6.15% |
| C[C@H](N)C(=O)N[C@@H](Cc1ccc(O)cc1)C(=O)N1CCC[C@H]1C(=O)NCC(=O)N[C@@H](CCCCN)C(=O)N[C@@H](Cc1ccccc1)C(N)=O | 6.68% | 4.74% | 10.6% | -4.23% | 5.48% |
| Cc1ccc(C)c(Cn2nc3n(CCCOC(C)C)c(=O)c4ccccc4n3c2=O)c1 | -0.985% | 7.69% | 7.69% | -7.55% | 2.28% |
| COC(=O)c1cc2n(n1)CC(C)(C(=O)NC1CCC(C)CC1)N(CCc1ccc(Cl)cc1)C2=O (stereo not given) | 3.86% | 2.05% | 5.6% | 3.76% | 7.17% |
| CCOC(=O)c1ccc(N2C(=O)CSc3c(c4ccccc4n3C)C2C(=O)NCc2ccc(F)cc2)cc1 (stereo not given) | 0.394% | 0% | 7.24% | 6.17% | 2.49% |
| CC(C)Oc1ccc(CNC(=O)c2ncn3c2C(=O)N(C2CC2)C(C)(C(=O)NCc2ccccc2)C3)cc1 (stereo not given) | -1.15% | -4.88% | 4.04% | -1.58% | -2.9% |
| Cc1cc(C)cc(NC(=O)CSc2nnc3n(CCC(C)C)c(=O)c4ccccc4n23)c1 | 2.85% | 0% | 7.71% | -4% | 2.44% |
| Cn1c(=O)n(C)c2cc(S(=O)(=O)NCCO)ccc21 | -2.99% | 2% | -0.01% | 3.5% | -5.78% |
| Cc1ccc(CNC2CN(C(=O)OC(C)(C)C)C2)nc1 | -1.21% | -3.9% | 0.753% | -7.48% | 10.4% |
| Cc1nc(N=Nc2ccc(S(=O)(=O)O)cc2S(=O)(=O)O)c(COP(=O)(O)O)c(C=O)c1O | 5.86% | 12.8% | 10.3% | -3.17% | 1.74% |
| CCCN1C(=O)c2c(C(=O)NCCc3cccs3)ncn2CC1(C)C(=O)NCc1ccc(F)cc1 (stereo not given) | 0.913% | 0.063% | 0.68% | 2.79% | 7.85% |
| Cc1cc(C)cc(NC(=O)Cc2ccc(OC(C)(C)C(=O)O)cc2)c1 | -3.88% | -22% | 5% | -31.1% | -3.83% |
| Cn1ccnc1C(=O)N1CCCCCNC(=O)[C@H]2C[C@H](C(=O)N3CCc4ccccc4C3)C[C@H]21 | -2.22% | -1.04% | -2.42% | -0.521% | -2.89% |
| CCCCC[C@H](CC(=O)NO)C(=O)N[C@H](C(=O)N1CCC[C@H]1CO)C(C)C | 8.97% | 10.2% | 12.9% | -5.46% | 3.91% |
| Cc1ccc(NS(=O)(=O)c2cc3c(cc2Cl)n(C)c(=O)n3C)cc1F | 14.6% | 0% | 11.3% | 7.13% | 7.03% |
| O=C(c1c2c(nc3ccccc13)CCCC2)N1CCCC(c2nc(C3CCOCC3)no2)C1 (stereo not given) | -7.6% | -7.2% | -4.61% | -8.18% | -4.54% |
| CCC(NC(=O)CC(NC(=O)C(CO)NC(=O)C(CC)NC(=O)c1ccc[nH]1)c1ccccc1)C(=O)O (stereo not given) | 4.42% | 8.8% | 8.17% | -4.67% | 6.89% |
| Cc1ccc2c(c1)c1c(n2CCc2ccc(C)nc2)CCN(C)C1 | 2.6% | -11.6% | -54.7% | -49.1% | -7.27% |
| CCc1nnc([C@@H]2CC(F)(F)CN2C(=O)c2occc2C)o1 | -4.08% | -10.4% | -3.35% | -13.3% | -8.6% |
| CCOC(=O)c1cc2n(n1)CC(C)(C(=O)NC1CCCC1)N(c1ccc(OC)cc1OC)C2=O (stereo not given) | 5.77% | 0.801% | 2.67% | 3.46% | 5.13% |
| Nc1ncnc2c1ncn2C1CCCC1 | -3.19% | 6.99% | 1.77% | -9.76% | -8.84% |
| CN(Cc1nc(-c2ccccc2)no1)C(=O)c1cccc(C2CCNC2)c1 (stereo not given) | -1.65% | -0.539% | -9.63% | 0.034% | 3.53% |
| COc1cccc(CN2C[C@@H](CO)[C@H](NC(=O)C3CCC3)C2)c1 | -5.13% | -4.2% | -2.39% | -4.99% | -3.1% |
